Assay results published in the RNAGym collection of RNA variant scans (doi:10.7554/elife.90254).
Read counts are not given, so values of variants with three or more changes are uncertain.

B1: LINE1-mini (parent)
chain: GGCAGAGCUCAACACAGCGUGGCAAAGUGGCUGUGGCUAGACUGCC

Variants of: B1
Assay: self-cleavage, relative activity (ratio to wild type); higher = more cleavage; in vitro, sequencing; the parent is a self-cleaving ribozyme

Variant | self-cleavage
G5C A16G G36C | 0.09
G5A U32C G36C C46A | 0.03
G5A U34C G36A A39C | 0.08
G5C A26U C37G | 0.06
G5C A6C C46G | 0.08
G5C C8G A12G C37G U38G | 0.06
G5C A6C G29A U43A | 0.17
G5C C8G C23U G44C C45U | 0
G5C A6U G7C | 0.02
G5A U20G C37G | 0.07
G5C A14U G21U | 0.05
G5C A12U U20A G21C A26C C37A U43G | 0
G5C A6G A16G U20G C42A | 0.05
G5C A6U U20A G27C C31A G33C C46A | 0.02
G5C A12U A24G A41C | 0.01
G5A U20G U34C | 0.02
G5C A16G C18A C23A G27C G36C G40U | 0.01
G5C C8G U9G A16G A26C G33U C37U | 0.02
G5C C8A C10A U20C A41U | 0.06
G5C A6U A16U C23U C46A | 0.02
G5C C8A U38A | 0.52

Variant | self-cleavage
G5C A12G C23G U32A G33A | 0.02
G5C A14C C18U C23G | 0.01
G5C A26C U38A | 0.07
G5C A24C C31G C37G U38G C42U | 0
G5C A11U G21U C31A G40C U43C | 0
G5C A11C C13G A26G G36A | 0.01
G5C A24U G35A A41G | 0.03
G5C A6G G22C G29A G30C | 0.04
G5C A12G G21U | 0.81
G5C A6U U20C C37A U38A U43C | 0.02
G5A U20A G21C A26U G30A C42A | 0.14
G5C A6U G7C G22A G44A | 0.2
G5C A14U G40A | 0.04
G5C C8G U9C U38C | 0.02
G5C A6C G33U G44A | 0.07
G5C A14U A24C | 0
G5C A11C U32C G44C | 0.04
G5C A14G G30C G36U A41G | 0.31
G5C A12C U38A | 0.01
G5C A25C C45U | 0.09
G5C A11C G19A G22U U28G | 0.01

Variant | self-cleavage
G5C A25U C42G G44U | 0.01
G5C A6U C23U | 0.08
G5A U38G C46G | 0.06
G5C A16U G21U C23A U43A | 0.01
G5C C8A C15U U38C A39U | 0.07
G5C A6G G29C C45A | 0.06
G5C A14G G17C G27A G30U | 0.06
G5C A16C G19C G21U G35U | 0.02
G5C C8A C10A A12U | 0.03
G5C A16G G17C G44C | 0.02
G5C C8A A14G G29A A39C G40A | 0.13
G5C A11G U20G G21U C42U | 0.01
G5A U28C G30A C37G | 0.01
G5C A6U C13A C15A | 0.1
G5C A11C A12U U34G | 0.02
G5C A6G C18U G21U G27C | 0.07
G5C A41U C46A | 0.03
G5C A11C U20A | 0.03
G5A U32C C37U | 0.03
G5A U34G G36C | 0.02
G5C A11U G19U C42U G44U | 0.01

Variant | self-cleavage
G5C C8A C31A G33U A39U | 0.03
G5C A12G A16C G17U G22A G27U | 0.1
G5C C8G C18G C31G | 0
G5C A12C G40C | 0.03
G5C A6U A25C | 0.07
G5C A16C G29U G36U | 0.08
G5A U9G G22U C23A | 0.08
G5C A6U C31G G33C | 0.06
G5C A26C C31G A41U C46G | 0.02
G5C A25U G40U | 0.13
G5A U9G G17U | 0.09
G5A U9G A11G C23A G44C | 0.02
G5C A11G C15U C18A C23A | 0.01
G5C C8G G19C | 0.05
G5C A6G C42G | 0.11
G5C A11U C37U | 0.03
G5A U20G G21A U28C C42A | 0.02
G5C A14C G44U C46G | 0.02
G5C A12G C13U C18A G22A C42A | 0.05
G5A U34C C37U G40C | 0.07
